In patent publication US10377789B2, “Oligonucleotide and artificial nucleoside having guanidine bridge” (OSAKA UNIVERSITY, priority 2012, dated 2019):
l = locked nucleic acid (LNA); d = 2'-deoxy (DNA)

What was measured:
Format in all cases: binding
[1] = test system: RNA 10 mers of poly A 5′-(AAAAAAAAAA)-3′; settings: target 5′-(AAAAAAAAAA)-3′; 200 mM KCl; vs native Compound 33
[2] = test system: DNA 10 mers of poly A 5′-(AAAAAAAAAA)-3′; settings: target 5′-(AAAAAAAAAA)-3′; 200 mM KCl; vs native Compound 33
[3] = test system: RNA target strands (10 mers of poly A and mismatch strands); settings: target 5′-(AAAAAAAAAA)-3′; 100 mM NaCl; vs native Compound 33
[4] = test system: DNA target strands (10 mers of poly A and mismatch strands); settings: target 5′-(AAAAAAAAAA)-3′; 100 mM NaCl; vs native Compound 33

Substance	ΔTm/Unit modification, RNA [1]	ΔTm/Unit modification, DNA [2]	ΔTm/Unit modification, RNA [3]	ΔTm/Unit modification, DNA [4]
5′-d(TTTTTTTTTT)-3′ [Compound 44] (TTTTNTTTTT; sugars from the 5' end d4 l1 d5, backbone and the base at N not given here) [oligonucleotide containing LNA-T, manufactured by Gene Design Inc]	(+6.0) ° C.	(+0.0) ° C.	–	–
5′-d(TTTtttTTTT)-3′ [Compound 42]	(+7.3) ° C.	(+10.0) ° C.	–	–
5′-d(TTtTtTtTTT)-3′ [Compound 31]	(+7.3) ° C.	(+10.7) ° C.	(+7.0) ° C.	(+10.0) ° C.
5′-d(TTTTtTTTTT)-3′ (TTTTNTTTTT; guanidine-bridged nucleic acid; Compound 29; Guanidine-Bridged Nucleic Acid) [t: guanidine-bridged nucleic acid, produced using Compound 28]	(+5.0) ° C.	(+5.0) ° C.	(+5.0) ° C.	(+4.0) ° C.
5′-d(tTtTtTtTtT)-3′ [Compound 43]	(+8.8) ° C.	(+10.8) ° C.	–	–
5′-d(TTTTtTtTTT)-3′ [Compound 30]	(+5.5) ° C.	(+8.5) ° C.	(+5.5) ° C.	(+8.0) ° C.
